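Tested at 5 concentrations; 48 h exposure; 96-well plates; endpoints linearly interpolated, else capped at highest concentration. Here, GI50 denotes the concentration required for 50% inhibition of growth.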 Activity calls are given as the source filed them. No stated cut-off is given here; in the data, active = GI50 up to about 1.1 µM and inactive = higher.
Each compound was assayed on NCI-H322M (assay: inhibition of tumour cell growth, NCI panel, 48 h).

Compound	GI50
CC(CN1CCN(CC(C)Nc2ccnc3cc(Cl)ccc23)CC1)Nc1ccnc2cc(Cl)ccc12 (centres undefined)	inactive: 3.13 µM
CCOC(=O)n1cncc1CC(NC(=O)Cc1c(C(=O)C=C(C)C)[nH]c2ccccc12)C(=O)OC (centres undefined)	inactive: 16.6 µM
CC(C)NC(=O)N(Nc1ccccc1)C(C)(C)C	inactive: > 100 µM
CCCC(=O)OCC(O)CO (centres undefined)	inactive: > 5000 µM
CC12CCC3=C(CSC4=C3CSc3ccccc34)C1=CCCC2=O (centres undefined)	inactive: > 100 µM
OC(CCN1CCN(CCOC(c2ccccc2)c2ccccc2)CC1)c1ccccc1 (centres undefined)	inactive: 25.2 µM
O=c1/c(=C/c2ccccc2[N+](=O)[O-])sc2nnc(-c3ccco3)n12	inactive: > 100 µM
CC(=O)O[C@H]1CC[C@H]2[C@@H]3CCC4=C(C(=O)C=CC4(C)OC(C)=O)[C@H]3CC[C@]12C (some centres undefined)	inactive: 85.5 µM
O=C(Cn1c(C(=O)/C=C/c2ccco2)nc2ccccc21)c1ccc(Cl)cc1	inactive: 27.3 µM
C=C1CC(CC(=O)C(C)CC2CC(=C)C(=O)O2)OC1=O (centres undefined)	inactive: > 100 µM
COc1ccc(C(=O)C#Cc2cn(C3CC(O)C(CO)O3)c(=O)[nH]c2=O)cc1 (centres undefined)	inactive: > 100 µM
Cc1c(C(=O)C/C(=N\O)C(=O)Nc2cc(Cl)c(Cl)cc2Cl)[n+]([O-])c2ccccc2[n+]1[O-]	inactive: 25.5 µM
COCn1cnc2c(=O)n(-c3ccc(C)cc3)c(=S)n(-c3ccc(C)cc3)c21	inactive: > 100 µM
C/C=C(/C)C(=O)O[C@H]1C[C@@H]2[C@@H](O)c3occ(C)c3C[C@]2(C)[C@@H](C)C1	inactive: 20.1 µM
CN(C)CCNC(=O)c1c2ccccc2cc2ccccc12	inactive: 55.8 µM
Nn1c(SCC(=O)NCc2ccccc2)nc2ccccc2c1=O	inactive: 37.5 µM
C[Si](C)(C)/C=C/CCC(C=O)(CCCl)c1ccccc1 (centres undefined)	inactive: 33.3 µM
OC(C1CO1)C(O)C1CO1 (centres undefined)	inactive: 138 µM
COc1ccc(/C=C2\CSC/C(=C\c3ccc(OC)c(OC)c3OC)C2=O)c(OC)c1OC	inactive: > 100 µM
O=C1C=C2CO[C@H]3OC[C@H](O)[C@@H]1[C@@H]23	inactive: > 100 µM
CC1=C(C(=O)Nc2ccccc2C)C(c2ccc([N+](=O)[O-])cc2)C(C(=O)Nc2ccccc2C)=C(C)N1	inactive: 82.8 µM
CCc1ncc(C(C)(O)c2ccccc2)n1Cc1ccccc1 (centres undefined)	inactive: 35.5 µM

Compound	GI50
N#CC1=C(N)OC2=C(CCCc3ccc([N+](=O)[O-])cc32)C1c1ccc(Cl)cc1 (centres undefined)	inactive: 10.7 µM
N/N=C1\CCCc2c1no[n+]2[O-]	inactive: > 100 µM
O=C(NO)NCCCl	inactive: > 100 µM
CCOC(=O)c1cccc(=O)c(C(=O)OCC)c1	inactive: 41.4 µM
O=c1c2ncn(C3CC(O)C(CO)O3)c2nnn1Cc1ccccc1[N+](=O)[O-] (centres undefined)	inactive: > 100 µM
O=CC1C(=O)Nc2nc3ccccc3n2C1c1ccccc1 (centres undefined)	inactive: 16.1 µM
CCN(CC)C(=S)N/N=C(/c1ccccc1)c1ccccn1	active: 0.216 µM
N=C(N)NS(=O)(=O)c1ccc(NC(=O)c2cccc3cc4ccccc4nc23)cc1	inactive: 40.2 µM
COC(=O)C1(NC(=O)C(CC(=O)OCc2ccccc2)NC(=O)OCc2ccccc2)CCCCCC1 (centres undefined)	inactive: > 100 µM
Cc1ccc2c(c1)C(=O)c1ccc(C)nc1C2=O	inactive: 23 µM
CN(C)/N=C1/CCC(C(F)(F)F)(C(F)(F)F)O1	inactive: 38.8 µM
C/C=C(\C)C(=O)O[C@@H]1CC(C)(C)CC2C3=CCC4[C@]56CC[C@](O)(OC5)C(C)(C)C6CC[C@@]4(C)C3(C)CC[C@]21C(=O)O (some centres undefined)	inactive: > 100 µM
COc1cc(C2c3cc4c(cc3[C@@H](Nc3ccc(N)cc3)C3COC(=O)[C@H]23)OCO4)cc(OC)c1O (some centres undefined)	inactive: 8.32 µM
C=C1C(O)C[C@H](OC(C)=O)[C@]2(C)C1C(OC(C)=O)[C@]1(C(C)(C)O)CC(O)C(C)=C1[C@@H](OC(=O)c1ccccc1)C2OC(C)=O (some centres undefined)	inactive: > 10 µM
COc1cc2cc(C(=O)N3CC(CCl)c4ccc([N+](=O)[O-])cc43)[nH]c2c(OC)c1OC (centres undefined)	inactive: > 100 µM
CCc1nc(N)nc(N)c1-c1ccc(Cl)c(N=[N+]=[N-])c1	inactive: 11.5 µM
C=C(C)[C@@H]1CC[C@]2(C(=O)O)CC[C@]3(C)[C@H](CCC4[C@@]5(C)CC[C@H](C(=O)/C=C/c6ccc(O)c(O)c6)C(C)(C)[C@@H]5CC[C@]43C)[C@@H]12 (some centres undefined)	inactive: 10.7 µM
COc1cc2cc[n+](C)c(Cc3ccc(Oc4cc(Cc5c6cc(OC)c(OC)cc6cc[n+]5C)ccc4OC)cc3)c2cc1OC	inactive: > 100 µM
CC(=O)O[C@H]1C(=O)[C@@]2(C)[C@H]([C@H](OC(=O)c3ccccc3)[C@]3(O)C[C@H](OC(=O)[C@H](O)[C@@H](NC(=O)c4cccc(N=[N+]=[N-])c4)c4ccccc4)C(C)=C1C3(C)C)[C@]1(OC(C)=O)CO[C@@H]1C[C@@H]2O	active: 0.00897 µM
CC(NNC(=O)c1ccncc1)c1ccc(F)cc1 (centres undefined)	inactive: > 100 µM
O=C1C2C3C=CC(C2C(=O)N1CN1CCOCC1)C1C2C(=O)N(CN4CCOCC4)C(=O)C2C31 (centres undefined)	inactive: > 100 µM
COc1ccc(/C=C(/C(=O)O)c2cc(OC)c(OC)c(OC)c2)cc1	inactive: 75.2 µM

Source: ChEMBL document CHEMBL1201862, “PubChem BioAssay data set” (2004)
